The list shows a part of the results. At the low end of the ranking the order means little. Measured with an extract: partners may take part in the binding.
The sequences below were run against T1, HNF4alpha2 (COS-7 nuclear extract) (UniProt P41235) (assay: protein-binding microarray). Settings: COS-7 nuclear extract on double-stranded Agilent 4x180k PBM; binding buffer, salt, pH and temperature not given; high values mean tight binding; double strand, one strand shown; sequences stand for … in …GCCTAGGGAGATTAGAGTATCGGTCGA.
T1 sequence: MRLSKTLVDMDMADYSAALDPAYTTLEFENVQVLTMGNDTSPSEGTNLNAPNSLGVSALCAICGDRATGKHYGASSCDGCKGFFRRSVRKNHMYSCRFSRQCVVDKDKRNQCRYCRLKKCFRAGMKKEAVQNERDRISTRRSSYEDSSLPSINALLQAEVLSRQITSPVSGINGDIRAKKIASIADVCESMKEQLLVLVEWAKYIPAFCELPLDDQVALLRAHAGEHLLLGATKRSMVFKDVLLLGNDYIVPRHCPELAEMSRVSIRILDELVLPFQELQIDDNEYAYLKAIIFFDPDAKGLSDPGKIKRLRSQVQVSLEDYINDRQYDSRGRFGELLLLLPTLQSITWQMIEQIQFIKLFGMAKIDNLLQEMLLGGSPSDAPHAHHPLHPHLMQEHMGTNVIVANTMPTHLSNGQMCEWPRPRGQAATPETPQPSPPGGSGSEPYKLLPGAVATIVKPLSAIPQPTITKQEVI

Sequence | binding signal (log2 normalized intensity)
TTGTGAATAAGGATTATCACTGAATCGAGG | -0.667
ACCCTCAGCTCCTCTCCTCCATGGCCTGGG | -1.2
TCTCACTCCAAAGGCTGTTTGCACCGTGTG | 1.04
AGTGACTTAGCAGGATTCTTGCTACAACTG | -1.12
AGGAGAGAGGCCTCTAGATAAACCAAGCCT | -1.24
AACTACAGGGTCTGTGGTAGATTATCTACA | -0.989
AGTGTTGCTCAAGTCTCCTGTTTTCTTATT | 1.09
CAGGCTCCACCGGATGGATAGGAATTGAGT | -1.15
AGTAAAGGACAAAGTCAACGGCTCTGCATA | -0.951
ATGGTCTGCTTGATAGCCATCTGGTGGACT | 2.24
GGCCAGTTCAGCGCGTCTTAGCACTCACCC | -1.03
AGGTGACAGTTAGGTAAGAGACAAAGGTTG | 1.69
TAAGCACAGGTTTCTGTCCTGGTCACAGTA | 0.7
AGACAACTTAGAATTTCATTTTGCTCTTTG | 0.723
AAATTTGTGTGTAACATTTGACTTCCCCAA | 2.47
GCTACGCACCAGGCATACTCCTCCTGGCTT | -1.22
CTTTTCAGTGCAAGGGACCTAGGTGAGCAG | 1.24
GGGCAGCCCGTGTGGGCGGGTGCAGCTTCC | -0.675
GAGATAAGGCAAGTCCCTTCCACCTATGAA | -1.22
CTGGCAAAACTGGTCAATATCCACACAAAC | -1.07
CACACTGCAGCGGCATTCTCTGGTCTGCGG | -1.06
CTGGTACCATGGATGCACTCCATTTACAGA | -0.798
CCACATTCTTTTAGTGTGCTCTGGGTCTGT | 2.63
GGTGGGCTCCACCCAGTTCGTGCTTCTTGG | -1.08

Sequence | binding signal (log2 normalized intensity)
TTGCTTCTGCCCCCTGGAGGAGCAAATACT | 2.48
GGATTTTTGCTGAAGACAGGCCAGGGTGAT | 0.831
TTTAATACCTCTGATCACTACAAGCTTTGA | -1.1
AGCAGGATAGAAGGAAACAGTTCAGATCTG | -0.971
ATCACAATCCTTAAGCAGCAGATAAGGCTA | -1.21
TGAAGTGAAGTTACAAAGGTCACACACCTG | 4.3
AAACACCCCTCCCCCACACAGACAAAGACA | 4.77
GCCAGTGGGGGTTGGTCTCTAAAACCCCCA | -0.751
AACAAAGATTGCTTGCCAGTTCCCTCACTG | -1.13
CTTGACGCTAACTTCCAGATCAAAGGACAT | 0.608
GGAGAATGGCAAGAGATAAGGGTGGCCATC | -0.981
TCCTTCAGCGTGAACTTTGACATGAGAGAA | 3.66
TGGGCTAAAAAGGAAGCTGTGTGTGTGAGT | 2.18
ATTGCCTGGCATTATCAGTGCTGCCATTTG | -1.02
AGGTTCCTCGCCTATGGTATGTATGGAATG | 2.04
ACATTTGGTGTAAGCACTTGTGGTATGTTT | 1.98
AAGAGGTTAAAGACCTTTGGGTAGGAATAG | 1.24
CACATGCTATTATTTTCCATCAGTGGACTT | 3.5
TCTTAGGAAAGAACAGGTCAAAGGTCAGTT | 9.13
TTTGGAAAAGATTAAGTTATCCATGGAGTG | 1.47
ACGTGAGGGCAGCATAATCACATACAGGCC | -0.924
GAACCTGTGCTTCTGGTTCTGGACTAAGAA | 1.05
TTCAAAGGGAAAAAATAATCAGCTTAAGCA | -1.11
CAAACATTACTGGCACACAGCAGATTACAT | -1.01

Sequence | binding signal (log2 normalized intensity)
CTAAAATATTCACTATCTGATCCTTTACAG | -0.264
ATGCCCCAAATGACGCTTTAAGTAGGCACT | 0.412
AAAATAGTGACCCTGTCTCTCAGTCTCTGT | 1.2
AATCCCCGAATGTCCAGACTGTGCATACCA | 1.6
TGGCCCTGATTTCAAAGTTCAGTTTGATTA | 2.36
AGGATCGCTTGAGCCTGGGAGGCAAAGGTT | 2.95
GGAGGACAGACTCTGGGAGATAAAGCAGAG | -1.16
CTCACGCGCTCCCTGTTTAGAATTCTGCCT | -1.16
GAATCTACAGAATTCTCATGGAGGACTTTG | 2.77
ATAGAGAGTTGGGAGGGAACAGTCCAGAGT | 0.00927
AGAGAGCCGGAAACTCCACCTTCAGATCAT | -1.14
GACCTTGTCATACTGGTTGAATGGACGGAC | 2.24
GCTTGGAGCCCCTTTGGAGGGGAAGCTGGG | -1.13
CTAATGCCTGGGAAAATGTTGATTACGTGT | 1.89
TTCAACTATTCCTCGACCTTCGGCTGGGGA | 1.01
CCACCTTCCCGGCCTGGCCACTCCGTTTGC | -0.958
CTGGGGACCCGTCGCTGCTGCACACTTCCG | -1.19
CCTTTGGACTGTCCTTTGCTAGATTCTTTC | 2.01
GCACCTGTTTCTGGAGAATGCTGTCCTGCC | -1.07
GCCGTCCTCAGTGAATCACAGCAGCTTCAA | -1.06
CCATTAAATCTTCCCTCCTGTGAACTCGCG | 1.22
ACTCCTACCACCAAAGAAAAAAGCCAATCT | -0.959
CTTAGCAGTGGGAGACAGGCATTAACCCTT | 1.44
GGAACAGTCCAGAGTCTGACAGAACTAAGC | -0.851

Sequence | binding signal (log2 normalized intensity)
CAGTTTCCAGGGAGGAGAGAAGGGCTGAAG | -0.867
CCAGGAGCAGAAAGGAGGCAGAGACTGCCC | -1.09
ACTGCTTACCCTGCAGTGTGACCTTTGCCT | 7.83
AGTAGGATTTCTAGTTAATATCTAAGATGT | 1.01
ACATGCTGTCTAGGCCAGAGTTCACTTTCC | 2.11
GAGGAATGCTGGTAAACACTGAGCTTTCAT | -0.989
TCCTCTCTCCCACAAGGGCAGCCCTGTTTA | -0.0809
AGACAAAAGTCCGGAATTTCCTCCTGGCAG | -1.13
TAGCCCTGAACAAACAGCTTCCAGAATAGC | -1.25
GAGCCACTTCACTGGTGTGATCTTTTTTCT | 0.757
GACTGGAAGTTGCCCGAGCTGCCCTTTATC | 2.47
AAATAGCTCAAGCCTGTTCCGACCTTAGTA | 1.41
CGGACAGGCATTAGCAATGCGAGAGTACAC | -0.0112
CTGCCTAGTTTTGTAACTTAAAGATCATGT | 1.81
GCATCTGGGGGCTTGTCAGACAAGTTGCAG | -1.35
CTTGCCTCTGTGCTCCCAGTTCCCTCATTA | 1.26
CTCCGGGTAAAGGTGAAGGCTGACCACGGG | -1.15
ATATGTTCGGGAGACATGTGGCCTTTGGTA | 3.02
CCTCTTTCAAGCCTGAACAAACATGAGGGA | -0.186
TGCTGACCTTTGTTCACATTTGTGCTCAGC | 3.43
ACATGCCTATGACCGAGGGTTAAGCTCATG | -0.22
